The least precise scores are not listed. Two further conditions of the source, in which the scores hardly spread, are not listed. In variant names, del marks residues removed and ins residues inserted between the two positions. For part of these data: The concentration of ogerin is not given here.
B1: GPR68, Q15743 (parent)
chain: MGNITADNSSMSCTIDHTIHQTLAPVVYVTVLVVGFPANCLSLYFGYLQIKARNELGVYLCNLTVADLFYICSLPFWLQYVLQHDNWSHGDLSCQVCGILLYENIYISVGFLCCISVDRYLAVAHPFRFHQFRTLKAAVGVSVVIWAKELLTSIYFLMHEEVIEDENQHRVCFEHYPIQAWQRAINYYRFLVGFLFPICLLLASYQGILRAVRRSHGTQKSRKDQIQRLVLSTVVIFLACFLPYHVLLLVRSVWEASCDFAKGVFNAYHFSLLLTSFNCVADPVLYCFVSETTHRDLARLRGACLAFLTCSRTGRAREAYPLGAPEASGKSGAQGEEPELLTKLHPAFQTPNSPGSGGFPTGRLA

Legend:
[1] = variants of: B1; experiment: cAMP reporter score (Enrich2 score, wild type = 0); higher = more signal; HEK293T, FACS bins
[2] = variants of: B1; experiment: surface expression score (Enrich2 score, wild type = 0); higher = more signal; HEK293T, FACS bins

Row | Variant | cAMP reporter score ([1]; pH 5.5) | cAMP reporter score ([1]; pH 6) | cAMP reporter score ([1]; pH 6, modulator: ogerin) | cAMP reporter score ([1]; pH 6.5, modulator: ogerin) | surface expression score [2]
1 | G335_E336insGS | 0.209 | 0.86 | 0.826 | 2.43 | 0.336
2 | E336_E337insGSG | 0.54 | 0.625 | 0.582 | 0.92 | 0.993
3 | S331_G332insGSG | 2.04 | 1.84 | 1.74 | 2.51 | 1.42
4 | P338del | 1.16 | -0.338 | 0.584 | 0.318 | 0.083
5 | E337_P338del | 0.506 | 2.12 | 0.187 | 0.365 | 0.828
6 | E336_E337insGS | 1.02 | – | 1.22 | 1.01 | 1.5
7 | S328_K330del | 1.01 | 0.031 | 0.902 | 0.099 | 0.986
8 | E337_P338insGSG | 0.353 | 0.198 | 0.839 | 0.732 | 1.03
9 | S328_G329insGSG | 0.378 | 0.094 | 0.291 | 0.67 | 0.585
10 | A333_Q334del | -0.334 | -0.396 | 0.07 | -0.212 | -0.341
11 | L341N | -0.409 | -1.16 | -0.297 | -0.702 | 0.087
12 | L341G | 0.916 | -0.069 | 0.513 | 1.24 | 1.4
13 | L341A | 1.5 | 0.345 | 1.77 | 0.925 | 1.06
14 | L341P | 0.082 | 1.26 | -0.2 | 0.134 | 0.48
15 | L341I | -0.358 | 0.121 | -0.765 | -0.627 | -0.13
16 | L341K | 0.635 | 0.735 | 0.721 | 0.371 | 0.105
17 | L341D | 0.596 | 2.22 | 0.611 | -0.307 | 0.6
18 | L341M | 0.407 | 0.688 | 0.679 | 0.556 | 1.03
19 | L341E | 0.892 | -0.06 | 1.43 | 0.342 | 1.01
20 | L341H | 0.535 | 0.049 | 0.604 | 0.69 | 0.332
21 | L341C | 0.228 | -0.689 | -0.359 | -0.25 | 0.819

Row | Variant | cAMP reporter score ([1]; pH 5.5) | cAMP reporter score ([1]; pH 6) | cAMP reporter score ([1]; pH 6, modulator: ogerin) | cAMP reporter score ([1]; pH 6.5, modulator: ogerin) | surface expression score [2]
22 | L341R | 1.29 | 0.642 | 1.36 | 1.94 | 1.36
23 | L341S | -0.393 | -0.528 | – | – | 0.62
24 | L341T | 0.252 | – | – | -0.451 | –
25 | L341F | -0.079 | 0.234 | 0.111 | 0.018 | -0.116
26 | L341Q | 0.641 | 0.617 | 0.196 | 0.899 | 0.96
27 | S328P | 0.547 | 1.3 | 0.883 | 0.915 | 0.109
28 | S328H | 0.055 | 0.667 | 0.425 | – | 1.41
29 | S328L | 0.391 | 0.324 | 0.646 | -0.149 | -0.118
30 | S328K | 1.95 | 1.03 | 2.27 | 1.71 | 0.738
31 | S328V | 0.72 | 1.75 | 1.02 | 1.76 | 1.38
32 | S328R | 0.224 | -0.514 | 0.825 | 0.745 | 0.461
33 | S328Y | -0.159 | -0.638 | -0.568 | -0.003 | -0.379
34 | S328I | 2.84 | 1.2 | 2.12 | 1.53 | 0.977
35 | S328T | -0.09 | -0.319 | -0.078 | 0.407 | 0.883
36 | S328N | 1.33 | 1.2 | 1.04 | 0.72 | 1.06
37 | S328Q | 0.745 | -0.002 | 0.988 | -0.041 | 0.445
38 | S328W | 2.06 | -0.064 | 1.39 | 0.672 | 0.038
39 | S328M | 0.163 | 0.158 | 0.142 | 0.504 | 0.003
40 | S328_G329insG | 1.31 | -0.367 | 1.39 | 1.46 | 1.31
41 | K330_S331insGS | 0.643 | -0.242 | 1.74 | 0.771 | 0.814
42 | K330del | 0.196 | 0.256 | -0.066 | – | 2.31

Row | Variant | cAMP reporter score ([1]; pH 5.5) | cAMP reporter score ([1]; pH 6) | cAMP reporter score ([1]; pH 6, modulator: ogerin) | cAMP reporter score ([1]; pH 6.5, modulator: ogerin) | surface expression score [2]
43 | Q334_G335insG | 0.741 | 1.2 | 0.487 | 0.259 | 0.938
44 | G335E | -0.048 | -0.113 | -0.179 | 0.134 | 0.269
45 | G335I | 0.041 | -0.731 | 0.239 | -0.111 | 0.157
46 | G335T | 0.78 | 0.747 | 0.892 | 0.827 | 0.192
47 | G335Y | 1.45 | 0.809 | 1.39 | 0.168 | 1.12
48 | G335K | 0.525 | 2.14 | 0.735 | 0.792 | 1.69
49 | G335Q | 0.452 | -0.32 | 0.216 | -0.141 | 0.534
50 | G335N | 0.284 | 0.138 | 0.204 | -0.175 | 0.354
51 | G335C | -0.456 | 0.203 | -0.296 | -0.045 | -0.342
52 | G335M | 0.393 | -0.12 | 0.725 | 0.736 | 0.302
53 | G335W | 0.589 | -0.834 | 0.472 | 0.79 | -0.25
54 | G335D | 0.4 | 0.624 | 0.541 | 1.65 | 1.11
55 | G335L | 0.737 | 0.615 | 0.616 | 0.898 | 0.877
56 | G335F | 0.271 | 0.975 | 0.884 | 0.017 | –
57 | G335A | 1.02 | -0.391 | 0.843 | 0.116 | 0.657
58 | G335V | 0.464 | 0.043 | 0.501 | 0.731 | 0.86
59 | G335S | 0.619 | 0.057 | 0.188 | 1.08 | -0.637
60 | G335R | 1.38 | 1.37 | 1.17 | 0.996 | 0.627
61 | G335H | -0.608 | -1.48 | -1.07 | -1.12 | -0.884
62 | G335P | -0.465 | – | -1.17 | -0.856 | 0.54
